# Experimental data as given in PubChem BioAssay AID624418 (National Center for Advancing Translational Sciences (NCATS), 2012).
# Among all 410,000 compounds or so, about 530 (0.13%) were called active. Inconclusive results, whose numbers are uncertain, are shown with a selection of clear calls. The call rests on the fitted dose curve; in most records, active means well fitted inhibition curve with a large enough effect; inconclusive means small, poorly fitted or top-dose-only effect, or another doubt; inactive means no such curve, though single readings can be large or run the other way. Potencies beside an inconclusive call are fits to weak or partial responses and may not hold up.
# Assay: qHTS of GLP-1 Receptor Inverse Agonists: Cytotox Screen
# Settings: HEK293 cAMP-luciferase reporter cells, luminescence, 24 h; activity change, negative = inhibition: at 38.3 µM (top of the series) unless noted
# How it was run: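 Quantitative HTS format, 1536 wells, 200 cells/uL seeded. Compounds: 23 nL, 24 h, 37 °C. Detection: luciferase reagent, luminescence at 12 min RT; decreased signal taken as cytotoxic.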
# On the % scale 0 is the no-effect control and ±100 the full control effect; potency means the concentration at half of the fitted maximal effect.
SMILES,Potency,"activity change, negative = inhibition"
O=C(NNc1ccc([N+](=O)[O-])cc1[N+](=O)[O-])c1ccco1,active: 10 µM,
CCCCCCOc1ccc(/C(C)=N/NC2=NCCN2)cc1[N+](=O)[O-],"inconclusive: 12.6 µM [inhibitor, single point]",
COc1ccc(C2C(C(=O)N3CCN(c4ccc(OC)cc4)CC3)c3ccccc3C(=O)N2C)cc1 (stereo unspecified),"inconclusive: 22.4 µM [inhibitor, single point]",
CC(C)(C)c1ccc(NC(=O)c2cc[n+]([O-])cc2)cc1,"inconclusive: 5.01 µM [inhibitor, full curve]",
CCOC(=O)c1c(C)[nH]c(CCC(=O)NCCCN2CCN(c3cc(C)ccc3C)CC2)c1C,"inconclusive: 15.8 µM [inhibitor, single point]",
Cc1c(C(=O)N2CCC[C@H]2C(N)=O)oc2c(F)cccc12,"inconclusive: 0.501 µM [inhibitor, full curve, poor fit]",
COC(=O)c1ccccc1NC(=O)N[C@@H](C)C(=O)OC,"inconclusive: 31.6 µM [inhibitor, single point]",
CC(=O)OC(COc1ccccc1)Cn1cnc2cc(C)c(C)cc21 (stereo unspecified),inactive,
O=[N+]([O-])c1ccc(O)c(P(=O)(c2ccccc2)c2ccccc2)c1,"inconclusive: 31.6 µM [inhibitor, single point]",
O=C(CSc1nc2ccccc2s1)N/N=C/c1cc([N+](=O)[O-])ccc1O,,inactive: -19.5%
Cc1ccc(Cl)cc1-n1ncc2c(NNC(=O)c3ccco3)ncnc21,,inactive: -23%
O=[N+]([O-])c1c(NCCO)cc(N2CCCCC2)c2nonc12,"inconclusive: 8.91 µM [inhibitor, partial curve]",
CC1CCCN(C(=O)c2ccc3c(=O)n(C4CCCC4)c(=S)[nH]c3c2)C1 (stereo unspecified),,inactive: 0.318%
COC(=O)c1ccc(Cn2cc(/C=C\[N+](=O)[O-])c3ccccc32)o1,"inconclusive: 28.2 µM [inhibitor, single point]",
Cc1ccc(OCC(=O)N/N=C/C=C/c2ccco2)cc1,"inconclusive: 28.2 µM [inhibitor, single point]",
COc1ccc2nc(-c3ccccn3)ccc2c1,"inconclusive: 11.2 µM [inhibitor, partial curve, poor fit]",
CCN(CC)S(=O)(=O)c1ccc(NC(=O)CCc2c(C)nc3cc(-c4ccc(Cl)cc4)nn3c2C)cc1,,inactive: 4.31%
C=CCNC(=S)N/N=C/c1ccc(C(C)(C)C)cc1,"inconclusive: 5.01 µM [inhibitor, full curve, poor fit]",
COc1cc2c(C#Cc3cccnc3)c(-c3ccsc3)oc(=O)c2cc1OC,"inconclusive: 1.58 µM [inhibitor, full curve, poor fit]",
COc1cc(C#Cc2c(-c3cncn3C)n(C)c3ccc(-c4cc(OC)c(OC)c(OC)c4)cc23)cc(OC)c1,"inconclusive: 10 µM [inhibitor, single point]",
O=C(CCCn1ncn2c(cc3occc32)c1=O)NCc1cccc(Cl)c1,,inactive: -0.379%
COc1ccc(-c2nn(-c3ccccc3)cc2C(=O)N2c3ccc(C)cc3C3CN(C)CCC32)cc1 (stereo unspecified),,inactive: 4.05%

SMILES,Potency,"activity change, negative = inhibition"
S=c1nc(-c2ccccc2)[nH]c2ccc(Br)cc12,"inconclusive: 0.501 µM [inhibitor, full curve, poor fit]",
CCn1ccnc1CNCc1ccc(OCC(O)CN(C)Cc2ccccc2)cc1 (stereo unspecified),"inconclusive: 5.01 µM [inhibitor, partial curve]",
N/C(=N\OC(=O)c1cccc2ccccc12)c1ccccn1,active: 3.98 µM,
CNc1ccc(/C=C(\CCC(=O)O)c2nc3ccccc3s2)cc1[N+](=O)[O-],"inconclusive: 20 µM [inhibitor, partial curve, poor fit]",
CC1=C(C(=O)OC2CCCCC2)C(c2cccnc2)n2ncnc2N1 (stereo unspecified),"inconclusive: 28.2 µM [inhibitor, single point]",
Nc1nc(-c2ccc(Br)cc2)c(S(=O)(=O)c2ccccc2)s1,,inactive: -19%
Cc1cc(Nc2sc(C(=O)c3ccc(F)cc3)c(N)c2C(=O)Nc2ccc(F)cc2)ccc1Cl,"inconclusive: 6.31 µM [inhibitor, partial curve, poor fit]",
CC1CCN(c2nc(/C=C/c3ccccc3)nc3ccccc23)CC1,"inconclusive: 28.2 µM [inhibitor, single point]",
Cc1ccc(C)c(N=Nc2nc3ccccc3n2C)c1,"inconclusive: 11.2 µM [inhibitor, partial curve, poor fit]",
CCOc1ccc(N(CC(=O)NCCc2ccc(F)cc2)S(=O)(=O)c2ccccc2)cc1,"inconclusive: 2.82 µM [inhibitor, single point]",
C=CCN(c1ccccc1)S(=O)(=O)c1cccc(C(=O)NCC(c2ccc(OC)cc2)N2CCCCC2)c1 (stereo unspecified),"inconclusive: 15.8 µM [inhibitor, single point]",
CCCCCCN1C[C@H](n2cc(C3CC3)nn2)[C@@H](O)C[C@@H]1c1ccc(C)cc1,"inconclusive: 22.4 µM [inhibitor, partial curve, poor fit]",
O=C(Nc1cccnc1)c1cc(-c2ccc(Br)cc2)nc2ccccc12,"inconclusive: 10 µM [inhibitor, single point]",
NC(=S)N/N=C1\CCSc2ccc(Cl)cc21,"inconclusive: 5.62 µM [inhibitor, full curve, poor fit]",
CC1=CC(C)(C)N2C(=O)C(=Nc3ccc(O)cc3)c3cccc1c32,"inconclusive: 28.2 µM [inhibitor, single point]",
O=C(N=C1SC2CS(=O)(=O)CC2N1c1ccc(F)cc1)C1CC1 (stereo unspecified),,inactive: -2.59%
CCN(C[C@H]1N[C@@](CC)(C(=O)OC)[C@H]2C(=O)N(C)C(=O)[C@@H]12)S(=O)(=O)c1ccc(OC)cc1,,inactive: -9.4%
CC(C)(C)OC(=O)NCCCC[C@H](NC(=O)c1nc[nH]c1C(=O)NC1CCN(C(=O)OC(C)(C)C)CC1)C(=O)OC(C)(C)C,,inactive: -24.9%
CCc1ccccc1NC(=O)CCN1C(=O)C2CC=CCC2C1=O (stereo unspecified),"inconclusive: 3.98 µM [inhibitor, full curve, poor fit]",
C=CCn1c(O)c(N=NC(=S)Nc2ccccc2F)c2ccccc21,"inconclusive: 0.501 µM [inhibitor, full curve, poor fit]",
O=C(Nc1cccc(-c2cccc(F)c2)c1)C1CCN(CC2CCOC2)CC1 (stereo unspecified),"inconclusive: 14.1 µM [inhibitor, single point]",
Cc1ccc(NC(=O)N2CCCC(c3nc(-c4ccc(F)cc4)no3)C2)cc1 (stereo unspecified),"inconclusive: 0.501 µM [inhibitor, full curve, poor fit]",

SMILES,Potency,"activity change, negative = inhibition"
Cn1c(CSc2ncccn2)nnc1SCC(=O)N1CCCc2ccccc21,"inconclusive: 0.891 µM [inhibitor, full curve, poor fit]",
Nc1nc(-c2ccccc2)c(N=Nc2cccnc2)s1,"inconclusive: 22.4 µM [inhibitor, single point]",
O=C(NNc1c2ccccc2nc2ccccc12)C(O)c1ccccc1 (stereo unspecified),"inconclusive: 8.91 µM [inhibitor, partial curve]",
COc1ccc(NC(=O)c2ccc3c(c2)c(C)c(C)n3Cc2ccc(F)cc2)cc1,"inconclusive: 7.94 µM [inhibitor, partial curve]",
CN(C)C(=O)c1cccc(-c2cnc3c(NC=O)cc(-c4ccccc4Cl)cn23)c1,"inconclusive: 12.6 µM [inhibitor, partial curve, poor fit]",
CCN(CC(=O)Nc1c(F)cccc1F)C(=O)c1ccc(S(=O)(=O)NCc2ccco2)cc1,,inactive: -1.59%
COc1ccc(-c2csc(C(C)(O)c3ccc(F)c(F)c3)n2)cn1 (stereo unspecified),,inactive: -17.7%
CCn1c(/C=C/c2ccccc2[N+](=O)[O-])nc2ccccc2c1=O,,inactive: -0.927%
CN1CCO/C1=C(\C(Cl)=C(Cl)Cl)[N+](=O)[O-],,inactive: 6.54%
O=C(c1ccc([N+](=O)[O-])s1)N1CCCc2ccccc21,"inconclusive: 31.6 µM [inhibitor, single point]",
Oc1ccc(CN2CCc3ccccc3C2)c2cccnc12,"inconclusive: 0.501 µM [inhibitor, full curve, poor fit]",
Cc1ccc2oc(=O)c3cc(C(=O)NCCCN4CCN(C)CC4)sc3c2c1,"inconclusive: 28.2 µM [inhibitor, single point]",
CC1S/C(=N/N=C2CCC(C(C)(C)C)CC2)NC1=O (stereo unspecified),"inconclusive: 12.6 µM [inhibitor, single point]",
Cn1c(=N)n(CC(=O)O)c2ccccc21,,inactive: 19.9%
COc1ccc2c(c1OC)C(=O)OC2N1C(=O)CC[C@H]1C(=O)Nc1ccc2c(c1)OCO2 (stereo partly specified),,inactive: -0.261%
S=C(NCCC1=CCCCC1)Nc1ccc(Cl)cc1,"inconclusive: 8.91 µM [inhibitor, partial curve, poor fit]",
Cc1ccc(NC(=S)NNC(C)(C)C)cc1,"inconclusive: 2 µM [inhibitor, partial curve, poor fit]",
Cc1ccc(OCC(=O)Nc2cc(S(=O)(=O)N3CCCCC3)ccc2N2CCN(C)CC2)c(C)c1,"inconclusive: 14.1 µM [inhibitor, single point]",
COc1ccc(C(=O)/C=C2/C(=O)Nc3ccccc32)cc1,"inconclusive: 28.2 µM [inhibitor, single point]",
CCN(CC)CCCC(C)Nc1nccc2cccc(Cl)c12 (stereo unspecified),"inconclusive: 12.6 µM [inhibitor, partial curve, poor fit]",
CCC1(CC)NC(=O)N(CC(=O)N2CCN(c3ccccc3F)CC2)C1=O,"inconclusive: 28.2 µM [inhibitor, single point]",
Cc1ccc(C)c(N2CCN(CCCc3ccccc3)CC2)c1,"inconclusive: 28.2 µM [inhibitor, single point]",
